# Measured values reported in the supplement of paper PMC8728848.
# The other results are listed elsewhere or left out.
# B1: PX9896A-bth-573-26-573 (Bacteroides thetaiotaomicron) (protein)
# chain: ETNNLKTKEDMYKYFGTSKSMLTHVYSYMPQGYQLFATSGGIFTEDRYSMRDCASDDGEFGAYADNIQNTNNGNWSPIKTYDDSWTLYRGIRAANSFIAEIAQVDFTRYEHDGQYTNWMKQLKYFPYEARVLRAHYFFELARRYGDIAMPLEVLTEEEANTIGKTPFSEVISFIVSECDDAANNLPDSYVNEPGAEIGRVTKGFAMAVKSKALLYAASKLHNPSMDTELWKKSAKAAIDIINTGLYSLDPQESANNLDSKEVVLMRINGDDSDFEMFNLPLRMTAGTRTSSLIPYSNYPSQNLVDAFETVNGYKVTLENTGWVCEDPAFDPQSPYENRDKRFYRAILANGMSFKDYTIETFKGGADDGIVSQGGSPTGYFLRKYIQEATSFEPGKEAVSKHHWVIYRYAETLLTYAESMVNAFNDVNYTDETYKYSALWAINEVRKNADMPLIPSMGKDEFMERLYNEWRVEFAFEDHRFWDVRRWKIADTTQRELYGVKIEKQADGTFNFYKNLYETRNWRDCMYLYPIPQSELYKNTNLNPQNTGW
# Legend:
# Experiment in all cases: glycan array binding signal (z-score within array); higher = stronger binding
# Details in all cases: glycan notation: IUPAC condensed, linker removed
# [1] = target: Neu5Ac(a2-6)Gal(b1-4)GlcNAc(b1-3)Gal(b1-4)GlcNAc(b1-3)GalNAc
# Method in brief: (§1)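 Columns mapping to the same glycan were averaged after glycan names were converted to IUPAC-condensed notation. The data come from 3228 arrays in the Consortium for Functional Glycomics database, limited to those with an available protein sequence. Binding is reported as a within-array Z-score averaged across arrays of one protein sequence and across linkers.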
# [2] = target: Neu5Ac(a2-6)Gal(b1-4)GlcNAc(b1-3)Gal(b1-4)GlcNAc(b1-3)[Neu5Ac(a2-6)Gal(b1-4)GlcNAc(b1-3)Gal(b1-4)GlcNAc(b1-6)]GalNAc
# Method in brief: as §1
# [3] = target: Neu5Ac(a2-6)Gal(b1-4)GlcNAc(b1-3)Gal(b1-4)GlcNAc(b1-6)[Gal(b1-3)]GalNAc
# Method in brief: as §1
# [4] = target: Neu5Ac(a2-6)Gal(b1-4)GlcNAc(b1-3)Gal(b1-4)[Fuc(a1-3)]GlcNAc(b1-3)Gal(b1-4)[Fuc(a1-3)]GlcNAc
# Method in brief: as §1
# [5] = target: Neu5Ac(a2-6)Gal(b1-4)GlcNAc(b1-3)GalNAc
# Method in brief: as §1
# [6] = target: Neu5Ac(a2-6)Gal(b1-4)GlcNAc(b1-3)[Neu5Ac(a2-6)Gal(b1-4)GlcNAc(b1-6)]GalNAc
# Method in brief: as §1
# [7] = target: Neu5Ac(a2-6)Gal(b1-4)GlcNAc(b1-6)GalNAc
# Method in brief: as §1
# [8] = target: Neu5Ac(a2-6)Gal(b1-4)GlcNAc(b1-6)[Gal(b1-3)GlcNAc(b1-3)]Gal(b1-4)Glc
# Method in brief: as §1
# [9] = target: Neu5Ac(a2-6)Gal(b1-4)GlcNAc(b1-6)[Gal(b1-3)]GalNAc
# Method in brief: as §1
# [10] = target: Neu5Ac(a2-6)Gal(b1-4)GlcNAc6S
# Method in brief: as §1
# Neu5Ac(a2-6)GalNAc = target: Neu5Ac(a2-6)GalNAc
# Method in brief: as §1
# [11] = target: Neu5Ac(a2-6)GalNAc(b1-4)GlcNAc
# Method in brief: as §1
# [12] = target: Neu5Ac(a2-6)GalNAc(b1-4)GlcNAc6S
# Method in brief: as §1
# [13] = target: Neu5Ac(a2-6)GlcNAc(b1-4)GlcNAc
# Method in brief: as §1
# [14] = target: Neu5Ac(a2-6)GlcNAc(b1-4)GlcNAc(b1-4)GlcNAc
# Method in brief: as §1
# Neu5Ac(a2-8)Neu5Ac = target: Neu5Ac(a2-8)Neu5Ac
# Method in brief: as §1
# [15] = target: Neu5Ac(a2-8)Neu5Ac(a2-3)Gal(b1-3)GalNAc(b1-4)[Neu5Ac(a2-3)]Gal(b1-4)Glc
# Method in brief: as §1
# [16] = target: Neu5Ac(a2-8)Neu5Ac(a2-3)Gal(b1-3)GalNAc(b1-4)[Neu5Ac(a2-8)Neu5Ac(a2-3)]Gal(b1-4)Glc
# Method in brief: as §1
# [17] = target: Neu5Ac(a2-8)Neu5Ac(a2-3)Gal(b1-4)Glc
# Method in brief: as §1
# [18] = target: Neu5Ac(a2-8)Neu5Ac(a2-3)Gal(b1-4)GlcNAc
# Method in brief: as §1
# [19] = target: Neu5Ac(a2-8)Neu5Ac(a2-3)[Gal(b1-3)GalNAc(b1-4)]Gal(b1-4)Glc
# Method in brief: as §1
# [20] = target: Neu5Ac(a2-8)Neu5Ac(a2-3)[GalNAc(b1-4)]Gal(b1-4)Glc
# Method in brief: as §1
# [21] = target: Neu5Ac(a2-8)Neu5Ac(a2-8)Neu5Ac
# Method in brief: as §1
# [22] = target: Neu5Ac(a2-8)Neu5Ac(a2-8)Neu5Ac(a2-3)Gal(b1-4)Glc
# Method in brief: as §1
# [23] = target: Neu5Ac(a2-8)Neu5Ac(a2-8)Neu5Ac(a2-3)[Gal(b1-3)GalNAc(b1-4)]Gal(b1-4)Glc
# Method in brief: as §1
# [24] = target: Neu5Ac(a2-8)Neu5Ac(a2-8)Neu5Ac(a2-3)[GalNAc(b1-4)]Gal(b1-4)Glc
# Method in brief: as §1
# [25] = target: Neu5Ac(a2-8)Neu5Ac(a2-8)Neu5Ac(a2-8)Neu5Ac(a2-3)[GalNAc(b1-4)]Gal(b1-4)Glc
# Method in brief: as §1
# [26] = target: Neu5Ac(a2-8)Neu5Gc(a2-3)Gal(b1-4)GlcNAc
# Method in brief: as §1
# [27] = target: Neu5Ac(b2-6)Gal(b1-4)GlcNAc
# Method in brief: as §1
# Neu5Ac(b2-6)GalNAc = target: Neu5Ac(b2-6)GalNAc
# Method in brief: as §1
# [28] = target: Neu5Ac9Ac(a2-3)Gal(b1-3)GlcNAc
# Method in brief: as §1
# [29] = target: Neu5Ac9Ac(a2-3)Gal(b1-4)GlcNAc
# Method in brief: as §1
# [30] = target: Neu5Ac9Ac(a2-6)Gal(b1-4)GlcNAc
# Method in brief: as §1
# [31] = target: Neu5Gc(a2-3)Gal(b1-3)GlcNAc
# Method in brief: as §1
# [32] = target: Neu5Gc(a2-3)Gal(b1-3)[Fuc(a1-4)]GlcNAc
# Method in brief: as §1
# Neu5Gc(a2-3)Gal(b1-4)Glc = target: Neu5Gc(a2-3)Gal(b1-4)Glc
# Method in brief: as §1
# [33] = target: Neu5Gc(a2-3)Gal(b1-4)GlcNAc
# Method in brief: as §1
# [34] = target: Neu5Gc(a2-3)Gal(b1-4)GlcNAc(b1-3)Gal(b1-4)GlcNAc(b1-2)Man(a1-3)[Neu5Gc(a2-3)Gal(b1-4)GlcNAc(b1-3)Gal(b1-4)GlcNAc(b1-2)Man(a1-6)]Man(b1-4)GlcNAc(b1-4)GlcNAc
# Method in brief: as §1
# [35] = target: Neu5Gc(a2-3)Gal(b1-4)[Fuc(a1-3)]GlcNAc
# Method in brief: as §1
# [36] = target: Neu5Gc(a2-6)Gal(b1-4)GlcNAc
# Method in brief: as §1
# Neu5Gc(a2-6)GalNAc = target: Neu5Gc(a2-6)GalNAc
# Method in brief: as §1
# [37] = target: Neu5Gc(a2-8)Neu5Ac(a2-3)Gal(b1-4)GlcNAc
# Method in brief: as §1
# [38] = target: Neu5Gc(a2-8)Neu5Gc(a2-3)Gal(b1-4)GlcNAc
# Method in brief: as §1
# [39] = target: Neu5Gc(a2-8)Neu5Gc(a2-3)Gal(b1-4)GlcNAc(b1-3)Gal(b1-4)GlcNAc
# Method in brief: as §1
# [40] = target: Neu5Gc(a2-8)Neu5Gc(a2-6)Gal(b1-4)GlcNAc
# Method in brief: as §1
# [41] = target: Neu5Gc(b2-6)Gal(b1-4)GlcNAc
# Method in brief: as §1
binder,measurement,setting,value
B1,glycan array binding signal (z-score),[1],0.116
same,glycan array binding signal (z-score),[2],0.26
same,glycan array binding signal (z-score),[3],-0.751
same,glycan array binding signal (z-score),[4],0.205
same,glycan array binding signal (z-score),[5],0.363
same,glycan array binding signal (z-score),[6],-0.343
same,glycan array binding signal (z-score),[7],-0.549
same,glycan array binding signal (z-score),[8],-0.043
same,glycan array binding signal (z-score),[9],-0.133
same,glycan array binding signal (z-score),[10],0.076
same,glycan array binding signal (z-score),Neu5Ac(a2-6)GalNAc,-0.202
same,glycan array binding signal (z-score),[11],0.26
same,glycan array binding signal (z-score),[12],-0.474
same,glycan array binding signal (z-score),[13],-0.377
same,glycan array binding signal (z-score),[14],-0.369
same,glycan array binding signal (z-score),Neu5Ac(a2-8)Neu5Ac,0.403
same,glycan array binding signal (z-score),[15],1.03
same,glycan array binding signal (z-score),[16],0.31
same,glycan array binding signal (z-score),[17],-0.699
same,glycan array binding signal (z-score),[18],0.123
same,glycan array binding signal (z-score),[19],-0.791
same,glycan array binding signal (z-score),[20],-0.414
same,glycan array binding signal (z-score),[21],-0.168
same,glycan array binding signal (z-score),[22],-0.639
same,glycan array binding signal (z-score),[23],-0.398
same,glycan array binding signal (z-score),[24],-0.852
same,glycan array binding signal (z-score),[25],0.475
same,glycan array binding signal (z-score),[26],13.3
same,glycan array binding signal (z-score),[27],0.023
same,glycan array binding signal (z-score),Neu5Ac(b2-6)GalNAc,-0.726
same,glycan array binding signal (z-score),[28],-0.919
same,glycan array binding signal (z-score),[29],0.648
same,glycan array binding signal (z-score),[30],0.618
same,glycan array binding signal (z-score),[31],0.301
same,glycan array binding signal (z-score),[32],-0.896
same,glycan array binding signal (z-score),Neu5Gc(a2-3)Gal(b1-4)Glc,-0.11
same,glycan array binding signal (z-score),[33],-0.12
same,glycan array binding signal (z-score),[34],0.811
same,glycan array binding signal (z-score),[35],-0.356
same,glycan array binding signal (z-score),[36],-0.408
same,glycan array binding signal (z-score),Neu5Gc(a2-6)GalNAc,-0.244
same,glycan array binding signal (z-score),[37],0.178
same,glycan array binding signal (z-score),[38],-0.807
same,glycan array binding signal (z-score),[39],-0.689
same,glycan array binding signal (z-score),[40],-0.009
same,glycan array binding signal (z-score),[41],0.432
